Reference: PubChem BioAssay AID1240 (Sanford-Burnham Center for Chemical Genomics, 2008)
The whole screen tested about 50,000 compounds, of which about 800 (1.6%) showed an effect of 50% or more. The list shows a part of the results.

The molecules below were run against Bcl-2-like protein 10 (Homo sapiens) (UniProt Q9HD36) (assay: TR3 peptide-Bcl-B binding displacers, biochemical primary FP assay, phenotype converters (AID 1240;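 further: 0% = Bcl-B with tracer peptide and DMSO and 100% = tracer peptide lacking Bcl-B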)). Details: GST-Bcl-B / FITC-TR3 peptide fluorescence polarization; stronger effect = higher value; compound at 3.75 mg/L.
Sequence of UniProt Q9HD36 (Q9HD36 whole entry, looked up): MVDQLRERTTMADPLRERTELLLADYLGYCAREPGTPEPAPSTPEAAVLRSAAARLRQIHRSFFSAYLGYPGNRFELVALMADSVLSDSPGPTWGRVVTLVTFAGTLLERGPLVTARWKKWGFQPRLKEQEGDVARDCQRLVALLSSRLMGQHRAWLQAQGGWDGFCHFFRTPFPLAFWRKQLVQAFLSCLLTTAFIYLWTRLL
Work on `Cc1cccc(C)c1OCCCCCCc1c(C)n[nH]c1C` yielded a displacement of -6.7%. For `O=C(c1cccnc1)N1CCN(C(=O)C(c2ccccc2)c2ccccc2)CC1`, the displacement was -16.6%. Molecule `O=C(O)c1ccc(-c2ccc(C=C3C(=O)c4ccccc4C3=O)o2)cc1Cl` has a displacement of 25.2%. In the case of `NC1=NC(=O)/C(=C/c2ccccc2OCc2ccc([N+](=O)[O-])cc2)S1`, the displacement is reported as 7.4%. For `CC1=NC(=S)C(C#N)C(c2ccccc2)=C1` (stereo not given), the displacement was 6.3%. In the case of `COc1ccc(-n2c(C)nc(N)c2C(=O)c2ccccc2)cc1`, the displacement is reported as -5.1%. With `O=[N+]([O-])c1cccc(S(=O)(=O)Nc2ccc(Oc3ccccc3)cc2)c1` the displacement was -10.7%. `CC(C)(C)c1ccccc1OCC(=O)Nc1cccc(Cl)c1` showed a displacement of 8.8%. For `C/C(=N\NC(=O)c1ccc2c(c1)OCO2)c1ccc(NC(=O)CCCC(=O)O)cc1`, the displacement was -3.2%. `O=S(=O)(Nc1ccccn1)c1cc(Cl)c(Cl)cc1Cl` showed a displacement of -7.4%. `COc1ccc(CCN=CC2=C(O)CC(c3ccccc3)CC2=O)cc1` (stereo not given) was tested, and the displacement was -5%. `O=C(CSc1nc2ccc([N+](=O)[O-])cc2s1)Nc1ccc(Br)cc1` was tested, and the displacement was 49.9%. `Cc1ccc2c(Cl)c(C(=O)Nc3nncs3)sc2c1` showed a displacement of -6.2%. In the case of `CCOC(=O)c1[nH]cnc1C(=O)Nc1ccc([N+](=O)[O-])cc1`, the displacement is reported as 15%. With `O=C1c2ccc3c4c(ccc(c24)C(=O)N1CCOc1ccccc1)CC3` the displacement was 15.3%. In the case of `CCCCOC(=O)c1nc2nc(C)cc(C)n2n1`, the displacement is reported as -13.3%. In the case of `O=C(NCCN1CCN(C(=O)c2ccccc2Cl)CC1)C(=O)Nc1ccccc1`, the displacement is reported as 9%. For `Cc1cccc2c1N(C(=O)Cc1ccccc1)C(C)(C)c1ssc(=S)c1-2`, the displacement was -1.6%. Work on `CCOC(=O)c1ccc(N2NC(=O)/C(=C/c3ccccc3)C2=O)cc1` yielded a displacement of -7.6%. `CCOC(=O)c1sc(NC(=O)CCCOc2ccc(Cl)cc2C)c(C(N)=O)c1C` gave a displacement of 48%. `CCCCOC(=O)c1ccc(NC(=O)C2CC(C)=C(C)CC2C(=O)O)cc1` (stereo not given) showed a displacement of 10%. `COc1ccc(Br)cc1C1CC(=O)Nc2c1ccc1ccccc21` (stereo not given) was tested, and the displacement was -14%. Work on `O=C(CSc1nc2ccccc2o1)Nc1ccccc1Oc1ccccc1` yielded a displacement of -20.1%. `COc1ccc(NC(=O)Cc2ccc(Br)cc2)c(OC)c1` showed a displacement of 0.6%. `COc1ccc(OCCSc2nc3ccccc3c(=O)[nH]2)cc1` gave a displacement of 13.2%. With `Cc1ccc(N2NC(=O)/C(=C/c3ccc(-c4ccc(S(N)(=O)=O)cc4)o3)C2=O)cc1` the displacement was 5.6%. In the case of `Cc1cc(C)nc(/N=C(/N)N2CCCc3ccccc32)n1`, the displacement is reported as 3.7%. With `Cc1ccc(C(=O)Nc2ccccc2C(=O)O)cc1N` the displacement was 2.7%. `CN1C(=O)NC(=O)/C(=C/c2ccc(O)c(Br)c2)C1=O` showed a displacement of -5.5%. With `O=C1/C(=C\c2ccc(O)cc2O)SC(=S)N1c1ccccc1` the displacement was 12.1%. Work on `O=C(NC(=S)Nc1ccccc1O)c1ccccc1` yielded a displacement of 7.7%. Molecule `O=C(/C=C/c1cccs1)NCc1ccc2c(c1)OCO2` has a displacement of -15.8%. In the case of `O=[N+]([O-])c1ccc(-c2ccc(/C=C/c3ccc4ccccc4n3)o2)cc1`, the displacement is reported as 14.8%. `O=C(N/N=C/c1c(Br)cc(Br)c(O)c1Br)c1ccccc1[N+](=O)[O-]` gave a displacement of -2.6%. Work on `COCCN1C(=O)C(=O)/C(=C(/O)c2ccccc2)C1c1ccc(OC)c(OC)c1` (stereo not given) yielded a displacement of 2.3%. `Cc1ccc(N2C(=O)NC(=O)/C(=C\c3ccc(-c4ccc(C)c([N+](=O)[O-])c4)o3)C2=O)cc1` showed a displacement of 151%. `COc1ccc(N(CC(=O)N/N=C/c2cc(Br)c(C)o2)S(=O)(=O)c2ccc(NC(C)=O)cc2)cc1` was tested, and the displacement was -40.2%. Molecule `O=C(N/N=C/c1cc2c(cc1Cl)OCO2)/C(=C\c1ccc2c(c1)OCO2)NC(=O)c1ccccc1` has a displacement of 2.1%. `O=C(NCC1CCCO1)c1ccc(F)c2ccccc12` (stereo not given) showed a displacement of -13.5%. Molecule `COc1ccc(-c2noc(COc3ccccc3)n2)cc1` has a displacement of 0%. With `C/C(=N\OCC(=O)N=Nc1c(O)n(CN2CCCC2)c2ccccc12)c1ccc(C)cc1` the displacement was 0.8%. For `COC(=O)C1=C(C)N(Cc2cccnc2)C(=O)/C1=C\c1cccc(OC)c1O`, the displacement was -2%. `O=C(NCCNc1ccc(Cl)cc1[N+](=O)[O-])c1cccnc1` was tested, and the displacement was -3.2%. `COc1cc(/C=C2\C(=O)NN(c3ccccc3)C2=O)ccc1OCCOc1ccc(C)cc1` showed a displacement of 9%. For `COc1ccc(C(=O)n2c(C)nc3ccccc32)cc1[N+](=O)[O-]`, the displacement was 15%. `CCOc1ccc(NC(=S)NC(=O)c2ccc(Br)cc2)c([N+](=O)[O-])c1` was tested, and the displacement was 4.5%. Work on `CCCn1c2ccccc2c2cc(C(C)=O)ccc21` yielded a displacement of -2.2%. `CC(C)(C)c1nnc(NC(=O)CSc2ncn[nH]2)s1` gave a displacement of -1%. With `COc1ccc(C2=Cc3cc(OC)c(OC)cc3S(=O)(=O)O2)cc1OC` the displacement was 4.1%. Molecule `COc1ccccc1NC(=O)C(=O)NNC(=O)c1cccs1` has a displacement of -9.5%. Molecule `CCN(CC)S(=O)(=O)c1ccc(NC(=O)c2cccs2)cc1` has a displacement of -6.9%. `COc1ccc2c(c1OC)C(=O)N(c1nc(-c3ccccc3)c(C(=O)c3ccccc3)s1)C2=O` was tested, and the displacement was 7.5%. In the case of `CC1SC(c2ccccc2)N(CCc2ccccc2)C1=O` (stereo not given), the displacement is reported as -14.2%. In the case of `CCCCCCCNC1CC(=O)N(c2cccc(Cl)c2)C1=O` (stereo not given), the displacement is reported as -25.2%. With `Cc1cc(C)c(C)c(OCCCCN2CCC(C)CC2)c1` the displacement was -11%. Molecule `O=C(c1cccc([N+](=O)[O-])c1)c1ccc2c(c1)C(=O)N(c1cccc(-c3nc4ccccc4o3)c1)C2=O` has a displacement of 10.2%. With `COc1cc([N+](=O)[O-])ccc1N/C(N)=N\c1nc(C)cc(C)n1` the displacement was -7.4%. In the case of `CCOC(=O)c1c(NC(=O)c2ccccc2OC)sc2c1CCCCC2`, the displacement is reported as 3.8%. Molecule `Cc1cc(C)c(C(=O)/C=C/c2ccncc2)c(=O)[nH]1` has a displacement of -3.1%. Molecule `C/C(=N\NC(=O)c1cc(C)[nH]n1)c1ccc(Cl)cc1` has a displacement of -3.3%. With `CC1(C)CC(=O)C=C(Nc2ccc(F)cc2F)C1` the displacement was -11.1%. Work on `NNc1nc(N2CCCCC2)nc(N2CCCCC2)n1` yielded a displacement of 8.4%. `Fc1ccc(C2=NN(c3ccccc3)C(c3ccco3)C2)cc1` (stereo not given) showed a displacement of 3.2%. `CCCN1C(=O)c2ccccc2NC1c1ccc(OC)c(COc2ccc([N+](=O)[O-])c(C)c2)c1` (stereo not given) gave a displacement of 2.1%. For `Cc1sc(NC(=O)c2ccc(Cl)cc2Cl)nc1C12CC3CC(CC(C3)C1)C2`, the displacement was -6.7%. `COc1ccc(OC)c(S(=O)(=O)N2CCCCC2)c1` gave a displacement of -0.9%. In the case of `CCc1ccc(NC(=O)COc2ccc(C)cc2C)cc1`, the displacement is reported as -4%. `Cc1ccccc1C(=O)Nc1sc2c(c1C(=O)NCc1ccco1)CCC2` showed a displacement of -11.7%. Work on `Cc1ccc(CC2CC(=O)N(c3cccc(C(F)(F)F)c3)C2=O)cc1` (stereo not given) yielded a displacement of 8.3%. With `Cc1cc(NC(=O)c2ccc(-c3ccccc3)cc2)ccc1NC(=O)c1ccco1` the displacement was -8.5%. With `O=C(NC(Nc1ccccn1)C(Cl)(Cl)Cl)c1ccccc1` (stereo not given) the displacement was -2.7%. Work on `Cc1ccc2c(Cl)c(C(=O)Nc3cc(Cl)ccc3C)sc2c1` yielded a displacement of -6.7%. `CC(C)(C)c1ccc(O)c(N=Cc2c(O)ccc3cc([N+](=O)[O-])ccc23)c1` showed a displacement of -3.5%. `CCOC(=O)CCc1c(C)nc2c(C)c(-c3ccc(C)cc3)[nH]n2c1=O` showed a displacement of 9.9%. With `Cc1ccc(C23CC4CC(CC(C(=O)NC5CCCCC5)(C4)C2)C3)cc1` the displacement was 1.4%. For `O=C(Nc1ccc(F)c([N+](=O)[O-])c1)c1cccc(Cl)c1Cl`, the displacement was 13.4%. For `CCc1cccc(C)c1NC(=O)c1c(Cl)ccc(Cl)c1OC`, the displacement was -10.9%. For `O=C(Cn1cnc([N+](=O)[O-])n1)N1CCN(Cc2ccccc2)CC1`, the displacement was -7.5%. Work on `O=C1NCCCc2nc(Nc3ccccc3)sc21` yielded a displacement of 1%. Work on `COc1ccccc1-c1nc2ccccc2nc1-c1ccccc1OC` yielded a displacement of -5.7%. `CCCOc1ccc(N2C(=O)CC(N3CCN(C)CC3)C2=O)cc1` (stereo not given) gave a displacement of 27.2%. `CCOC(=O)C1=C(C)N=c2s/c(=C\c3cc(OC)c(O)c(OC)c3)c(=O)n2C1c1ccccc1` (stereo not given) showed a displacement of -29.2%. For `CCOc1cccc(C=NN2CCN(Cc3ccc(C)cc3C)CC2)c1O`, the displacement was 7.9%. `O=C(Nc1ccc([N+](=O)[O-])cc1Cl)c1cc2ccccc2o1` was tested, and the displacement was 8.5%. With `COc1ccccc1NC(=O)/C=C/c1ccc(C)o1` the displacement was 17.4%. `O=C(Nc1ccccc1C(F)(F)F)c1cccc(OCc2ccccc2)c1` was tested, and the displacement was -1.9%. In the case of `O=C(c1cccc(F)c1)N1CCN(c2ccc(Cl)cc2)CC1`, the displacement is reported as 0.6%. With `Cc1ccc(-c2csc(NC(=O)C3C4CCC(C4)C3C(=O)O)n2)cc1C` (stereo not given) the displacement was -9.6%. For `CCOc1cc(OCC)cc(C(=O)Nc2ccc(F)cc2)c1`, the displacement was 13.3%. In the case of `O=C(NC(=S)Nc1ccccc1O)c1ccc(Br)cc1`, the displacement is reported as 10%. `CC(=O)C1=C(O)C(=O)N(CC2CCCO2)C1c1ccc([N+](=O)[O-])cc1` (stereo not given) was tested, and the displacement was 8.7%. With `Cc1cccc(N(CC(O)CN2C(=O)NC(C)(C)C2=O)S(=O)(=O)c2ccccc2)c1` (stereo not given) the displacement was -3.5%. Molecule `COC(=O)c1cc(Br)cc(NC(C)=O)c1` has a displacement of 7.8%. `O=C(NC(Nc1ccccc1Cl)C(=O)c1ccccc1)c1ccco1` (stereo not given) gave a displacement of -8.7%. `Cc1ccc(Nc2nc(-c3ccccc3)cs2)cc1` showed a displacement of 5.8%. In the case of `COc1cc(C(=O)N/C(N)=N/c2nc3ccccc3o2)cc(OC)c1OC`, the displacement is reported as 22.1%. For `Cc1cccc(C)c1OCC(=O)N/N=C/c1ccccc1[N+](=O)[O-]`, the displacement was -0.9%. With `O=C(NCCN1CCCCC1)c1ccc(/C=N/O)nc1` the displacement was -2.3%. Work on `Cc1ccccc1C(=O)NN1C(=O)CSC1=S` yielded a displacement of 9.8%. Molecule `CSc1ccc(/C=N/NC(=O)c2cc(C)[nH]n2)cc1` has a displacement of 3.8%. `O=S(=O)(Nc1ccc2oc3c(c2c1)CCCC3)c1ccccc1` was tested, and the displacement was -5.5%. With `COc1cccc(C(=O)Nc2cc3nn(-c4ccc(C)cc4)nc3cc2C)c1` the displacement was -13.3%. `COc1ccc(C2NCCc3c2[nH]c2ccccc32)cc1OC` (stereo not given) was tested, and the displacement was 8.4%. Molecule `O=C(Nc1cccc(I)c1)C(c1ccccc1)c1ccccc1` has a displacement of 7.4%. With `CC(C)(C)c1ccc(C(=O)Nc2ccc(NC(=O)COc3ccccc3[N+](=O)[O-])cc2)cc1` the displacement was 0%. With `O=C(NCc1ccncc1)c1ccc([N+](=O)[O-])cc1` the displacement was 4.3%. Molecule `CC(C)CCNC(=O)/C=C/c1ccc([N+](=O)[O-])cc1` has a displacement of -3.7%. With `CC1CN(c2ccc([N+](=O)[O-])cc2)CCN1S(C)(=O)=O` (stereo not given) the displacement was -6%. Molecule `CCCOc1ccc(C(=O)c2ccc(F)cc2)cc1OCCC` has a displacement of 7.8%. `Cc1ccc(-c2cc(C(=O)Nc3ccccc3)c3ccccc3n2)cc1` gave a displacement of -14.7%.
